Test results reported in publication PMC4336329 (PLoS ONE, 2015).
About 2,200 (0.71%) of roughly 310,000 compounds showed an effect of 50% or more. The effect is printed as a negative number. The list shows a part of the results.

Biological target: human ether-à-go-go-related gene (hERG) potassium channel (human, UniProt Q12809)
Assay: primary screen, population patch clamp on CHO cells stably expressing hERG

Sequence of human ether-à-go-go-related gene (hERG) potassium channel (Q12809 whole entry, looked up): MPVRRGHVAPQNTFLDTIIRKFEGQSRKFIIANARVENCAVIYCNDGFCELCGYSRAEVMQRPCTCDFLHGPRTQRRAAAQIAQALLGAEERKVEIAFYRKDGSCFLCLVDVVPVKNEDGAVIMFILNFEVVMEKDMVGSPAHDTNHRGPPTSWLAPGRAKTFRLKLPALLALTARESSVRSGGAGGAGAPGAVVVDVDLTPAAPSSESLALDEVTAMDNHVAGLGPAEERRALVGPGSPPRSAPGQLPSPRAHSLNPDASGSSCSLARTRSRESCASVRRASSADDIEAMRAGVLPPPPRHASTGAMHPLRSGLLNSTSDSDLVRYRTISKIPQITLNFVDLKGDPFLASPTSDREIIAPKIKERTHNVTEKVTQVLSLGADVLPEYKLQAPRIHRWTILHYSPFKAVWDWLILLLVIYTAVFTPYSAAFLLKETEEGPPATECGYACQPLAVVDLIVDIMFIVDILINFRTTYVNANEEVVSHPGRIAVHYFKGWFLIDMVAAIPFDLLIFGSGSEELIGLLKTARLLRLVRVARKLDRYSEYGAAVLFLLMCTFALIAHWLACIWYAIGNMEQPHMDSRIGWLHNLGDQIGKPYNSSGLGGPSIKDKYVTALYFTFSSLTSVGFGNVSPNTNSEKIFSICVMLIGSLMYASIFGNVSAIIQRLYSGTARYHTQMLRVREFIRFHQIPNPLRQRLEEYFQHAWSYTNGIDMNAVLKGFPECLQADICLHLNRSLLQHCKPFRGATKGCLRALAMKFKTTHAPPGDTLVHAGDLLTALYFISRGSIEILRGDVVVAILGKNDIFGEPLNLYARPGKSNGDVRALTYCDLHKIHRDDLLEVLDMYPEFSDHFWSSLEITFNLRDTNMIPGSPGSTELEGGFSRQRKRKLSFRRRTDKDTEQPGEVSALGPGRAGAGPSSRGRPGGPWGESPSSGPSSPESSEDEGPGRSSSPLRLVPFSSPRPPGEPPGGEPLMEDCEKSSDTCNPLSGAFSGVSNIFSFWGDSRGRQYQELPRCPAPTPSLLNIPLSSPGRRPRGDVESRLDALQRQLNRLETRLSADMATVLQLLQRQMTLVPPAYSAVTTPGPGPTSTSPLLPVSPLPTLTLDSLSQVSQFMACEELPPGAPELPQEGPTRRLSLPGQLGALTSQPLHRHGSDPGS

Compound	hERG current change (%, negative = inhibition) at 1uM
CS/C(N)=N/S(=O)(=O)c1ccc(NC(C)=O)cc1	15.2%
C=CCn1c(O)c(N=Nc2ccccc2C)c2ccccc21	10%
Cc1ccc(N(C(C)C(=O)Nc2ccc3c(c2)OCO3)S(C)(=O)=O)cc1 (stereo not shown)	8.42%
Cc1cc(C2=NNC(=NCCc3ccccc3)SC2)c(C)n1-c1c(C)n(C)n(-c2ccccc2)c1=O	18.8%
O=C(C1=C(O)C(=O)N(CC2CCCO2)C1c1cccnc1)c1ccco1 (stereo not shown)	7.42%
COc1ccc(-c2cc3c(=O)n(CC(=O)Nc4ccc(C(C)=O)cc4)ncn3n2)cc1	24.4%
CCCC(=O)OCCn1c(Br)nc2c1c(=O)[nH]c(=O)n2C	13.8%
Cc1nc2c(C)cccc2c(SC(=N)N)c1CC=C(Cl)Cl.Cl	12.4%
CCc1ccc(NC(=O)c2cc(-c3ccco3)on2)cc1	0.42%
CC1=NN(c2ccccc2C(=O)O)C(=O)C1N=Nc1ccccc1 (stereo not shown)	0.561%
COc1ccc(NC(=O)c2ccc(NC(=O)CCS(=O)(=O)c3cccs3)cc2)cc1	14%
CCCCCCN1CC(=O)N2[C@@H](Cc3c([nH]c4ccccc34)C2(C)C)C1=O	15.5%
O=C(NNC(=S)NC(=O)c1sc2ccccc2c1Cl)c1ccc(Cl)cc1	12.2%
O=C(NCc1ccncc1)c1ccc(Br)o1	-0.613%
O=C(CSCC(=O)Nc1cccc2ccccc12)Nc1cccc2ccccc12	23.7%
CCOc1cc(/C=N/Nc2nnc(C)n2N)ccc1OC(C)=O.Cl	11.7%
CC1CN=C(NC(C)c2ccccc2)S1 (stereo not shown)	6.3%
O=[N+]([O-])c1ccc(N2CCCC2)cc1NC(c1ccccc1)c1ccccc1	14.9%
CCc1[nH]nc2c1C1(CCN(C(=O)OCc3ccccc3)CC1)C(C#N)=C(N)O2	9.7%
O=C(Nc1nnc(C23CC4CC(CC(C4)C2)C3)s1)c1ccc(N2C(=O)CCC2=O)cc1	13.1%
CCCCN(C)CCN1C(=O)C2C(C(=O)Nc3ccc(Cl)cc3)C3C=CC2(O3)C1C(=O)NC1CCCCC1 (stereo not shown)	-60.5%
COc1cccc(C(=O)COC(=O)C(C)N2C(=O)c3ccccc3C2=O)c1 (stereo not shown)	16.2%

Compound	hERG current change (%, negative = inhibition) at 1uM
CC1CCN(c2c(NCc3ccc(C(=O)NCC4COc5ccccc5O4)cc3)c(=O)c2=O)CC1 (stereo not shown)	6.92%
c1ccc2c(c1)nc(-c1ccncc1)n2CCNc1nc(CN2CCCCC2)cs1	12%
CC(NC(=O)CCc1ccccc1)c1ccc2c(c1)OCO2 (stereo not shown)	20.1%
COC(=O)c1ccccc1C(=O)N1CCCC(C(=O)c2ccc(OC)c(OC)c2)C1 (stereo not shown)	14.3%
COc1ccc(-c2ccc3nnc(SCC(=O)N4CCCC4)n3n2)cc1	-4.68%
COc1ccc(NC(=O)CC2C(=O)OCC3CCCCN32)cc1Cl (stereo not shown)	-2.17%
CCOc1cccc(CN2CCC(n3nccc3NC(=O)c3ccc4c(c3)OCO4)CC2)c1	-1.26%
CC(C)OCCCN1CN(S(=O)(=O)c2ccccc2)c2nc3ccccc3nc21	12.3%
O=C(Nc1nc2nccc(-c3ccccc3)n2n1)c1ccccc1	2.61%
Cc1cc(-c2cccc([N+](=O)[O-])c2)nc2ccccc12	-1.23%
CC(=O)c1cccc(NS(=O)(=O)N2CCOCC2)c1	5.09%
Cc1ccc(N2C(=O)c3cccc4c(N5CCN(C)CC5)ccc(c34)C2=O)c2cccnc12	13.4%
COc1ccccc1/C=N/n1nnnc1N	14.2%
CCCCN1C(=O)/C(=C/c2ccc(N(C)C)cc2)C(=O)N(Cc2ccco2)C1=O	11.5%
O=C(NNc1nc2ccccc2s1)Nc1ccccc1	2.55%
Cc1c(NC(=O)/C(C#N)=C\c2cccs2)c(=O)n(-c2ccccc2)n1C	4.97%
COc1cc(/C=C2\SC(=S)N(c3cccnc3)C2=O)ccc1O	10%
O=[N+]([O-])c1ccc(N2CCCC2)cc1NC1CC1	8.12%
CC(c1ccccc1)n1c(N2CCNCC2)nc2c1c(=O)[nH]c(=O)n2C (stereo not shown)	7.28%
COc1ccc(CNC(=O)CN(C(=O)CCC(=O)Nc2ccccn2)c2ccccc2OC)cc1	5.56%
C=C1CCN([C@@H](Cc2ccccc2)C(=O)NCc2ccccc2)S(=O)(=O)c2ccccc21	9.01%
